One assay addresses T1, mouse FcγRIV (mouse).
T1 construct: Bought soluble receptor; also called mFcgRIV; mFcgR IV
The assay can be described thus: SPR (Biacore), antibody captured on Protein L, mouse FcγR as analyte, pH 7.4, 25 C.

The target in assay [1] is T2, human FcRn (soluble human FcRn complexed with beta2-microglobulin) (human, UniProt P61769 in part).
T2 construct: also called hFcRn
The assay can be described thus: SPR (Biacore), pH 7.0, 25 C, antibody captured by Protein L, human FcRn as analyte. (SPR reads the build-up and loss of mass on a sensor chip optically.)

The values below come from patent US20140105889A1 (published 2014).

Usually Kd stands for the concentration at which binding is half-saturated.

mouse FcγRIV, sequence (A0A0B4J1G0 21-203): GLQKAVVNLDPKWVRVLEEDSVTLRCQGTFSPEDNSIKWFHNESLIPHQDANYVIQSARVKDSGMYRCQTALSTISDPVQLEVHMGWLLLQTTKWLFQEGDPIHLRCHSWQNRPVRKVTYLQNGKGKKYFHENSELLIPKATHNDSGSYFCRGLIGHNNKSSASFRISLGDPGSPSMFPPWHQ

B1: antibody with VH3-IgG1-F760 heavy chain and L(WT)-CK light chain (antibody)
heavy: QVQLQESGPGLVKPSETLSLTCAVSGHSISHDHAWSWVRQPPGEGLEWIGFISYSGITNYNPSLQGRVTISRDNSKNTLYLQMNSLRAEDTAVYYCARSLARTTAMDYWGEGTLVTVSS[here human IgG1 constant region with L235R S239K (EU numbers) without letters]
light: DIQMTQSPSSLSASVGDRVTITCRASQDISSYLNWYQQKPGKAPKLLIYYTSRLHSGVPSRFSGSGSGTDFTFTISSLQPEDIATYYCQQGNTLPYTFGQGTKVEIKRTVAAPSVFIFPPSDEQLKSGTASVVCLLNNFYPREAKVQWKVDNALQSGNSQESVTEQDSKDSTYSLSSTLTLSKADYEKHKVYACEVTHQGLSSPVTKSFNRGEC
notes: copies: 2 + 2
As to B1, the “BINDING AMOUNT(RU)” value with mouse FcγRIV was 8.1 RU.

B2: IgG1-F1033 (antibody, name in EU numbering)
heavy: QVQLQESGPGLVKPSETLSLTCAVSGHSISHDHAWSWVRQPPGEGLEWIGFISYSGITNYNPSLQGRVTISRDNSKNTLYLQMNSLRAEDTAVYYCARSLARTTAMDYWGEGTLVTVSS[here human IgG1 constant region with P238D N434W (EU numbers) without letters]
light: B1 light
Molecule B2 gave a Kd in assay [1] of 1 µM.
